# Experimental data published in the supplement of paper PMC9446081.
# About 220 (0.56%) of roughly 39,000 compounds showed activity. The list shows a part of the results.
# Tested on: Escherichia coli K-12 BW25113
# Test: relative growth (OD600 normalised to plate interquartile mean) (fraction); higher = less growth inhibition, active = 0.2 or less
# Settings: 50 µM; LB; incubation time: overnight (16-24 h)
# 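Note: static incubation at 37 °C against the wild-type strain, values averaged over two biological replicates.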
row,SMILES,relative growth
1,Oc1ccc([C@H]2Oc3cc(O[C@@H]4OC[C@H](O)[C@@H](O)[C@@H]4O)cc(O)c3C[C@@H]2O)cc1O,inactive: 0.996
2,COc1ccc2c3c([nH]c2c1)[C@@H](CO)N(C[C@]13CN(C1)S(=O)(=O)C)C(=O)C1CCOCC1,inactive: 0.895
3,C[C@@H]1CN([C@H](C)CO)C(=O)c2cc(NC(=O)CCC(F)(F)F)ccc2O[C@@H](C)CCCCO[C@H]1CN(C)C(=O)Nc1ccccc1,inactive: 1.02
4,COc1cc(O)ccc1C(C)=O,inactive: 1.03
5,C[C@@H]1CCCCO[C@@H](CN(C)Cc2ccc(C(F)(F)F)cc2)[C@@H](C)CN([C@H](C)CO)C(=O)c2cc(NC(=O)NC3CCCCC3)ccc2O1,inactive: 0.974
6,Cc1ccc(S(=O)(=O)Nc2ccc3c(c2)C(=O)N([C@H](C)CO)C[C@@H](C)[C@@H](CN(C)C(=O)NC(C)C)O3)cc1,inactive: 0.975
7,COc1ccc(S(=O)(=O)Nc2cccc3c2O[C@H](CN(C)S(=O)(=O)c2ccc(OC)cc2)[C@H](C)CN([C@@H](C)CO)C3=O)cc1,inactive: 1.04
8,C[C@H](CO)N1C[C@H](C)[C@@H](CN(C)Cc2ccc(Oc3ccccc3)cc2)Oc2ccc(NS(=O)(=O)c3ccc(F)cc3)cc2CC1=O,inactive: 0.948
9,CCOC(=O)Cc1n[nH]c(=O)[nH]c1=O,inactive: 1.01
10,COc1cccc(C#Cc2ccc([C@@H]3[C@@H](CO)N4C(=O)CN(S(=O)(=O)c5ccccc5C)C[C@@H]34)cc2)c1,inactive: 1.03
11,C/C=C/c1cnc2c(c1)C(=O)N([C@H](C)CO)C[C@H](C)[C@H](CN(C)S(=O)(=O)c1ccc(OC)cc1)O2,inactive: 0.975
12,C[C@@H]1CN([C@H](C)CO)C(=O)c2cccc(NC(=O)C3CCCCC3)c2O[C@@H]1CN(C)Cc1ccc(C(=O)Nc2ccccc2N)cc1,inactive: 0.988
13,Cc1noc(C)c1NC(=O)Nc1ccc2c(c1)CC(=O)N([C@@H](C)CO)C[C@@H](C)[C@@H](CN(C)S(=O)(=O)c1cn(C)cn1)O2,inactive: 0.84
14,CN1CCN(C)[C@@H](CO)C1,inactive: 0.986
15,Cc1noc(C)c1S(=O)(=O)N(C)C[C@@H]1Oc2ccc(NS(=O)(=O)c3cn(C)cn3)cc2CC(=O)N([C@H](C)CO)C[C@@H]1C,inactive: 0.99
16,COC(=O)c1c2oc(c1C(=O)OC)C(=O)N[C@@H](Cc1ccccc1)Cn1cc(nn1)[C@@H](Cc1ccccc1)NC(=O)N[C@H](COC(=O)NCCCCCC(=O)NO)CC2,inactive: 1.02
17,CO[C@@H]1CN(C)C(=O)c2cc(NC(=O)Nc3cccc(Cl)c3)ccc2OC[C@@H](C)N(C(=O)Nc2c(C)noc2C)C[C@@H]1C,inactive: 1
18,COc1ccc(S(=O)(=O)N(C)C[C@@H]2Oc3c(NS(C)(=O)=O)cccc3C(=O)N([C@@H](C)CO)C[C@@H]2C)cc1,inactive: 0.996
19,O=C(CCc1ccc(O)cc1)c1c(O)c([C@@H]2O[C@H](CO)[C@@H](O)[C@H](O)[C@H]2O)c(O)c([C@@H]2O[C@H](CO)[C@@H](O)[C@H](O)[C@H]2O)c1O,inactive: 1

row,SMILES,relative growth
1,Cc1noc(C)c1NC(=O)Nc1ccc2c(c1)C(=O)N([C@H](C)CO)C[C@H](C)[C@@H](CN(C)CC1CC1)OCCCC[C@H](C)O2,inactive: 0.994
2,Cc1noc(C)c1S(=O)(=O)Nc1ccc2c(c1)CC(=O)N([C@@H](C)CO)C[C@@H](C)[C@H](CN(C)Cc1ccc(C(=O)O)cc1)O2,inactive: 1
3,C[C@H](O)C#Cc1ccc2c(c1)O[C@@H](CN(C)C(=O)Nc1ccccc1)[C@@H](C)CN([C@@H](C)CO)S2(=O)=O,inactive: 0.984
4,COc1cccc(CN(C)C[C@H]2OCc3ccccc3-c3c(n(C)c4ccccc34)C(=O)N([C@@H](C)CO)C[C@@H]2C)c1,inactive: 1.03
5,Cn1ccnc1CN1CC[C@]2(COCCN(S(C)(=O)=O)C2)C1,inactive: 1.03
6,Cc1ccc(S(=O)(=O)N2C[C@H](O)COC[C@H]3O[C@H](CC(=O)NCc4ccc5c(c4)OCO5)CC[C@@H]32)cc1,inactive: 1
7,CCOc1ccc(Nc2nc3c(=O)nc[nH]c3n2[C@H]2O[C@@H](CO)[C@@H](O)[C@@H]2O)cc1,inactive: 1.04
8,N[C@@H](Cc1cc(I)c(Oc2ccc(O)c(I)c2)c(I)c1)C(=O)O,inactive: 1
9,COc1ccc(CN(C)C[C@H]2OCCCC[C@H](C)Oc3ccc(NC(=O)Nc4cccc5ccccc45)cc3C(=O)N([C@H](C)CO)C[C@@H]2C)cc1,inactive: 1.04
10,COC1C(O)C(O)C(O)C(O)C1O (stereo not drawn),inactive: 0.97
11,COc1ccc([C@@H]2CC(=O)c3c(O)cc(O[C@@H]4O[C@H](CO[C@@H]5O[C@@H](C)[C@H](O)[C@@H](O)[C@H]5O)[C@@H](O[C@H]5O[C@H](CO)[C@@H](O)[C@H](O)[C@H]5O)[C@H](O)[C@H]4O)cc3O2)cc1O,inactive: 0.992
12,CN(C)CC#Cc1ccc([C@H]2[C@@H](CO)N3CCCCN(C(=O)CN(C)C)C[C@@H]23)cc1,inactive: 1.01
13,NCc1ccc(-n2cccc2)cc1,inactive: 0.993
14,O=C(C[C@H]1C[C@@H]2c3cc(NS(=O)(=O)c4ccc(F)cc4)ccc3O[C@@H]2[C@@H](CO)O1)N1CCOCC1,inactive: 1
15,C[C@@H]1CN([C@@H](C)CO)C(=O)c2cccc(NS(=O)(=O)c3ccccc3)c2O[C@@H]1CN(C)C(=O)Nc1cccc2ccccc12,inactive: 0.983
16,C[C@@H]1CCCCO[C@@H](CN(C)Cc2ccc(Cl)c(Cl)c2)[C@@H](C)CN([C@H](C)CO)C(=O)c2cc(NS(=O)(=O)c3cn(C)cn3)ccc2O1,inactive: 1.04
17,COc1ccc(S(=O)(=O)Nc2ccc3c(c2)C(=O)N([C@@H](C)CO)C[C@@H](C)[C@@H](CN(C)C(=O)Nc2ccccc2)OCCCC[C@@H](C)O3)cc1,inactive: 1.05
18,CCNC(=O)C[C@H]1CC[C@H](NC(=O)C2CC2)[C@H](CO)O1,inactive: 1.01
19,Cc1ccc(S(=O)(=O)N(C)C[C@@H]2Oc3c(NC(=O)c4cnccn4)cccc3C(=O)N([C@H](C)CO)C[C@H]2C)cc1,inactive: 0.989
